The supplement of paper PMC3334620
The full ranking holds about 33,000 sequences; the median of “E-score (-0.5 to 0.5)” is about -0.013, and the highest 2% start at about 0.3. The list shows a part of the results.

target: T1, Msn1 (UniProt P22148); experiment: PBM E-score (8-mer binding enrichment) (E-score (-0.5 to 0.5)); higher = stronger / more preferred TF binding; most listed sequences are background and not binding sites; settings: protein concentration: 200 nM; construct: GST-full length
T1 sequence: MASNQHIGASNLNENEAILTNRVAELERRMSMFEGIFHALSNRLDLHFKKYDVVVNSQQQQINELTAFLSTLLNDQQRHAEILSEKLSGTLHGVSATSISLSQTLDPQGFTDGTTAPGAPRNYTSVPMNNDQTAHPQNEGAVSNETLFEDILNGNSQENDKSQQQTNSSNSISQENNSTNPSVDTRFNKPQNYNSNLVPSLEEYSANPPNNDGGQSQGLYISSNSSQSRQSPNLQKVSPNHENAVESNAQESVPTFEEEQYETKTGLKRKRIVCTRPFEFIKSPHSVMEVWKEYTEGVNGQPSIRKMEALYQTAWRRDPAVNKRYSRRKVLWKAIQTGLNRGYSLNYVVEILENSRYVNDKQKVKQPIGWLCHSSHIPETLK
How it was run: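 Each ungapped eight-base word and its reverse complement, pooled, received an E-score from the Universal PBM Analysis Suite. Underlying scans, normalised with masliner, recorded fluorescent anti-GST bound to GST-tagged yeast transcription factors. These were applied at about 100-200 nM to universal all-10-mer Agilent arrays double-stranded by primer extension.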

Sequence	PBM E-score
CGAAATTA	0.138
CATCCCGG	0.0319
ACCTGTAG	-0.0898
ACAAGAAG	0.029
ATAAGAGG	-0.168
GTGGCAGA	-0.184
ATGTGCCG	0.113
CCGGCACC	0.0454
CACGCGCG	-0.0825
CTTATGCC	-0.0711
GCAAGGGC	-0.289
ATCGATTG	0.219
AACGCCAG	-0.0958
CATGCCTA	-0.203
CCCTCGCC	-0.294
TTGCCAAA	-0.0227
TACAAACA	0.301
AACCCTGA	0.188
ACGACTGC	-0.178
AAACTCAC	-0.147
CGCCAAAG	-0.126
ATAGATTG	0.082

Sequence	PBM E-score
GAGCCACA	-0.142
CTGTGCTA	-0.125
GCCTTGTA	0.0896
CTATCGCA	-0.201
CGTAGGTA	-0.0556
CCCAATCA	-0.0875
ATGTGACA	0.305
CAAGTGCG	-0.14
GGGTCGAA	-0.195
ATACCGGA	0.0703
CGCAGAAG	-0.0692
AGATCTCC	-0.134
AGGCCGGG	-0.207
ATTGATCC	-0.035
TAACGTTA	0.11
TCGCGCGA	0.0603
AGAACTAG	0.0709
CGAATACC	-0.104
AGATCCAA	-0.0896
ATTCTCAC	-0.00883
GTACAGGA	0.184
ACGCCGTG	-0.0634

Sequence	PBM E-score
ACTGTAAT	0.0722
ATCTACTC	-0.035
CTAGAGCA	-0.096
GCTATGCA	-0.0988
AGTGGAGG	-0.193
ACATGCGG	0.166
ATCGGAGG	0.0379
AGAGACGC	0.0491
CGGTTGAA	0.109
CGGTCCAC	-0.0766
AAGAGCCG	-0.115
GGGCACGA	-0.0856
GCCCCGGC	-0.209
AGCTACTA	0.0706
CACTTGAC	0.00207
GACTTATC	0.166
TAGAATGA	0.0016
GTACTACA	0.179
ACTTTTTG	0.248
ACCAGTCC	-0.232
CATGTTAA	0.163
ATTAGGCC	0.117

Sequence	PBM E-score
ATCCCGAG	0.0254
GAGGAATA	0.0988
GGGCGACA	-0.119
AATCATCG	-0.0148
GCCGCGAC	-0.0504
AGGCCGGA	-0.098
GATACACC	0.106
ACGAACGT	0.00507
CATAGACG	0.194
CGGAAACA	-0.0558
GAAGTCTC	-0.0243
CAATAATC	0.0799
AAAGGAGG	-0.303
CGAGGGCC	0.0261
ATGATCAT	0.118
CGTAAACC	-0.0451
TGAGGTAA	-0.0205
ATGGGGTC	-0.256
CTTCTTTC	-0.0964
GCGCGAGA	0.0574
CGTCAAGA	-0.102
TAGACCTA	0.00091

Sequence	PBM E-score
GCTTAAGC	-0.102
CTCGGATA	0.157
TAATATTA	0.24
ATCGCAAT	0.105
CCTCTCGC	-0.165
CGGCGCAA	-0.00261
CCACATAA	0.0595
ACGTCACT	0.109
GATTTGGC	-0.221
CTCACTTC	-0.212
AGCATAGA	0.00863
ATGCCCGA	-0.0335
CCCATTTA	-0.0541
CACAAGCC	-0.139
CGACGATC	0.108
AACAGTGT	-0.0192
AGCCACAT	-0.105
CGCGACAA	0.304
GATCCTAA	-0.0896
ATCTTTGG	-0.0763
CCAGAGGG	-0.325
